Test results reported in the supplement of paper PMC3334620.
In all, about 33,000 sequences were measured (“E-score (-0.5 to 0.5)”: median about -0.043, highest 2% from about 0.37 on). Some of the results follow.

Molecular target: T1, Upc2 (UniProt Q12151)
T1 sequence: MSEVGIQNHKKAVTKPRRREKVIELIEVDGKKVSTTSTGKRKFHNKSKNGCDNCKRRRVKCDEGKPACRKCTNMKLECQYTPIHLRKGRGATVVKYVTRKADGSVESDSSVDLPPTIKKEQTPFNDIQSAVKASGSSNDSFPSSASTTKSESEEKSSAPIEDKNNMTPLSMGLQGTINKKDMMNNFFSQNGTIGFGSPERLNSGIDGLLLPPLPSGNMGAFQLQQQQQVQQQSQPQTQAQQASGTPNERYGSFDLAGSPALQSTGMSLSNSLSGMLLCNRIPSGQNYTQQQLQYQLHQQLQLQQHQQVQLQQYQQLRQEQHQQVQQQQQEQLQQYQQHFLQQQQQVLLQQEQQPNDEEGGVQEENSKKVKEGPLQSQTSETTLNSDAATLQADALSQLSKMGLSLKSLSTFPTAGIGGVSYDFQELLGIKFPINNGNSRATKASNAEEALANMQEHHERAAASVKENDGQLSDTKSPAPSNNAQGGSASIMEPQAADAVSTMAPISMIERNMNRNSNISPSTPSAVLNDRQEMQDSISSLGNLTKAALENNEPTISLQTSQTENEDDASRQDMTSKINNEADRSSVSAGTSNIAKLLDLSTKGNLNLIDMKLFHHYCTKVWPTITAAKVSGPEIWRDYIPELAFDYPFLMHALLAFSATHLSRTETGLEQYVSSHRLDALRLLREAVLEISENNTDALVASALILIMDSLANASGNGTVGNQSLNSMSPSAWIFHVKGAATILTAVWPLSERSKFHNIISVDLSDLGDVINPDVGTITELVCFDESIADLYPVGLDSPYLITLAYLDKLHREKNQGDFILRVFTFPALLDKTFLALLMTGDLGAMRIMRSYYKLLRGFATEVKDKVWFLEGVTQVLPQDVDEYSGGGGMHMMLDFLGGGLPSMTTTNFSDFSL
Test: PBM E-score (8-mer binding enrichment) (E-score (-0.5 to 0.5)); higher = stronger / more preferred TF binding; most listed sequences are background and not binding sites
Conditions: protein concentration: 200 nM; construct: GST-full length
Summary of the method: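 E-scores (a modified Wilcoxon-Mann-Whitney statistic) were assigned by the Universal PBM Analysis Suite to every ungapped eight-base word pooled with its reverse complement. The input came from universal all-10-mer Agilent arrays made double-stranded by primer extension and probed with GST-tagged yeast transcription factors at about 100-200 nM. Fluorescent anti-GST detected bound protein, and masliner normalised the scans.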

In order of rising “PBM E-score” value:
1. GCTCTTGA  -0.305
2. GGAACAGA  -0.303
3. AGTGGAAG  -0.288
4. AAAGGGCC  -0.285
5. GCTATGCC  -0.282
6. GCCACCAC  -0.276
7. AGTCATCA  -0.266
8. ATGCCTAG  -0.264
9. AGCCTATG  -0.26
10. CACCCTGA  -0.259
11. GGACTTCA  -0.256
12. CCAGGGCC  -0.25
13. TCTATCAA  -0.242
14. ACTTCCCT  -0.239
15. AGCTGTCC  -0.233
16. AGTCATGG  -0.232
17. GGAATGGA  -0.231
18. AAAGGACT  -0.23
19. CACTTGCC  -0.222
20. CAACCTCC  -0.217
21. CTTCTAAC  -0.197
22. CTACAAGA  -0.194
23. ATCGCCAA  -0.189
24. CAGTGTGA  -0.187
25. CCCTGCTA  -0.187
26. CATTGGTA  -0.184
27. CTCTAACC  -0.18
28. CATGACCC  -0.175
29. CCCGGTGA  -0.17
30. TGATACAA  -0.162
31. CAATGATG  -0.162
32. GATGGCCA  -0.161
33. CATGGCGC  -0.161
34. ACTCCTCA  -0.157
35. AGTACAGC  -0.156
36. CGGGACGA  -0.15
37. CAAATGTC  -0.143
38. AAGTCCAG  -0.142
39. AACAAGTT  -0.141
40. ACATGGCG  -0.138
41. AAACCTTC  -0.136
42. AATAAAGT  -0.132
43. CGTGTGGC  -0.132
44. CGGAGCAA  -0.132
45. AAAAAGAG  -0.131
46. ACATGGAC  -0.13
47. AGAGTTTG  -0.13
48. CTGCCTAA  -0.123
49. ACCATTCT  -0.122
50. AGCCCACA  -0.12
51. GACATGAA  -0.117
52. AAACTCCA  -0.114
53. CGTCTGTC  -0.111
54. CATGTAGC  -0.108
55. GGGGTATA  -0.102
56. ATCCATTA  -0.101
57. CTCACACC  -0.101
58. CTCAACCC  -0.0986
59. CTTCTGAA  -0.0964
60. ACTCCCGC  -0.0959
61. GGGTGTCA  -0.0944
62. AGCTACTG  -0.0902
63. AAGATGAA  -0.0898
64. CACTCGAC  -0.0887
65. AAACCTGC  -0.0886
66. AAGTTAAA  -0.0841
67. CAAAACAC  -0.084
68. CCCCGACC  -0.084
69. CACCCTCC  -0.083
70. AGTATCCA  -0.0811
71. AAGCGTGC  -0.0801
72. GGACAAAA  -0.0784
73. CGCTTTCA  -0.0764
74. ACTCCCAC  -0.0741
75. AGATTTGC  -0.069
76. CTGTATGA  -0.0678
77. ATGCACCC  -0.0668
78. TCTTTGCA  -0.0667
79. TCATTTCA  -0.066
80. ATGACCCG  -0.0623
81. GCTTGCAA  -0.0609
82. TAATCTCA  -0.058
83. CGCCTATC  -0.0576
84. CGGCATTC  -0.0564
85. CGACCTGC  -0.0528
86. CTCAGGTC  -0.0484
87. ATACATCG  -0.0482
88. ACTTGGCA  -0.0444
89. ACTACAAG  -0.044
90. CCCGACTC  -0.0417
91. CTGGGAAG  -0.0394
92. ATAGGTAG  -0.0378
93. CGCCCGCC  -0.036
94. GATGGACC  -0.0321
95. AGACCGAG  -0.0307
96. ACCCCTAT  -0.0296
97. AATTCTAC  -0.0273
98. ATCAAGAA  -0.0255
99. CCGCAGAA  -0.025
100. ACCATGCG  -0.0246
101. ACTACCAG  -0.0238
102. ATTGGCGC  -0.0236
103. CGGATCTA  -0.0176
104. CTGCGCAA  -0.0175
105. ATGTCCTC  -0.0153
106. TGATTACA  -0.0104
107. AAAACCGC  -0.0094
108. GCCCGCAA  -0.00852
109. ATCGACTC  -0.00472
110. AGTGCAGA  -0.00395
111. ATGAACTG  -0.00237
112. CGCGCACG  -0.00142
113. GAATAGGA  0.00265
114. TAACTACA  0.00324
115. ACTAAAAC  0.00593
116. GGACATTA  0.01
117. CCGCGACG  0.0123
118. ATCATCAT  0.0157
119. CGTCGCAG  0.02
120. CTCTTACA  0.0232
121. CTGAGAAC  0.0245
122. GGATGGTA  0.0248
123. GTTCGCCA  0.0268
124. CCAGTAGC  0.028
125. ATTTATGG  0.0293
126. CGGCAACA  0.0297
127. GACAGGAA  0.0304
128. AAACTAAG  0.0307
129. ACACGCCA  0.0338
130. AGAGAATG  0.0339
131. TACGCCTA  0.0355
132. GATTGTTA  0.036
133. CAGCTCCG  0.0379
134. CCTCAGCG  0.0381
135. ACAGATAT  0.0429
136. CATCAAAA  0.0504
137. TAAGCCTA  0.0514
138. CGTCACCA  0.0655
139. TAGAGCGA  0.0675
140. CACGACGC  0.0689
141. GTTCTCAA  0.0703
142. ACTTAAGC  0.0705
143. GTGCGTTA  0.0729
144. GCGAATAA  0.088
145. ACGGGCTA  0.0889
146. AACTATAA  0.0921
147. AATACTCG  0.101
148. ACGTAGAG  0.101
149. CGCATCCG  0.109
150. CGATGTGC  0.111
151. TAACGCCA  0.127
152. CAGGCGTA  0.131
153. ATACAATC  0.133
154. AATAATGC  0.151
155. ACGTAACC  0.157
156. CGTTTTCC  0.165
157. ACTTCGCG  0.166
158. AACGCATG  0.172
159. CGACGCAC  0.182
160. CGATCCGA  0.189
161. GGGTCGCA  0.192
162. ACGTTTCG  0.192
163. CGTAGCAG  0.198
164. ACGATAAG  0.225
165. ACGACTAG  0.234
166. ACGGGGCG  0.238
167. GTCAACGA  0.248
168. ATGTAAAC  0.27
169. TACGAAAA  0.411
170. AACGAGCT  0.438
171. AGGTCGTA  0.451
172. GCATACGA  0.47
